We go through twelve molecules from patent US20240043530A1 (JIANGSU HENGRUI PHARMACEUTICALS, published 2024).

Holding throughout (assay): cell-based or functional assay
For test [1], the target named is T1, human PVRIG expressed on the cell surface (human, UniProt Q6DKI7 41-326).
T1 sequence (looked up): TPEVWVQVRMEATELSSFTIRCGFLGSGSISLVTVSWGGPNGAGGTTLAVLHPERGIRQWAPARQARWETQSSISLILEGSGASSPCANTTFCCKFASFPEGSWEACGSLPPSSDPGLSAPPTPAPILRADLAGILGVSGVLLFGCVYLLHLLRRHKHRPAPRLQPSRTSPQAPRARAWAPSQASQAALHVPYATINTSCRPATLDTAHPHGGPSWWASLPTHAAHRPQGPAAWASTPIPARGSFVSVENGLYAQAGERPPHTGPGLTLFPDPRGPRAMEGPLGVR

The target in test [2] is T1, human PVRIG expressed on the cell …. The source holds these as a separate data set.
The target is the same in test [3]. The source holds these as a separate data set.
Test [4] has the same target. This is another data set of the same source.
For test [5] the target is unchanged. The source holds these as a separate data set.
For test [6] the target is unchanged. This is another data set of the same source.

Where a chain is given by its changes, count along the chain named. Read-outs that look alike come from different tables or passages of the source.

B1: anti-PVRIG antibody 151 (Fc fusion)
heavy: HVQLVESGGGSVQAGGSLRLSCVASASGFTYRPYCMAWFRQAPGKEREAVAGIDIFGGTTYADSVKGRFTASRDNAGFSLFLQMNDLKPEDTAMYYCAAGDSPDGRCPPLGQGLNYWGQGTQVTVSS[human IgG4 Fc with S228P F234A L235A (EU numbers) omitted]
With B1, the “Experiment on activity in PVRIG reporter cells EC50” value (from here on “Experiment on activity”) in test [1] was found to be 0.04 nM. Also, in test [2], the “Killing activity (%) of NK92 on K562, 20 nM antibody” value came out at 35% and the “Killing activity (%) of NK92 on K562, 100 nM antibody” value was found to be 33%. In addition, in test [3], the “IFNγ (pg/mL) in mixed lymphocyte reaction, 4 nM antibody” value (shortened to “IFNγ (pg/mL) … 4 nM antibody”) was 1500 pg/mL; the “IFNγ (pg/mL) in mixed lymphocyte reaction, 20 nM antibody” value (from here on “IFNγ (pg/mL) … 20 nM antibody”) is 2220 pg/mL; the “IFNγ (pg/mL) in mixed lymphocyte reaction, 100 nM antibody” value (from here on “IFNγ (pg/mL) … 100 nM antibody”) is 1800 pg/mL. Also, in test [4], the “Killing activity (%) of NK92 on K562, 4 nM antibody” value was determined as 20.9%; the “Killing activity (%) of NK92 on K562, 20 nM antibody” value stood at 22.9%; the “Killing activity (%) of NK92 on K562, 100 nM antibody” value was found to be 24.2%.

B2: humanized anti-PVRIG antibody 151H7 (Fc fusion)
heavy: B1 heavy with S11L, A14P, F81Y, D86S, K88R, P89A, M94V, Q122M
Turning to B2, the “Experiment on activity” value in test [5] turned out to be 0.038 nM. In addition, in test [4], the “Killing activity (%) of NK92 on K562, 4 nM antibody” value was 16.9%; the “Killing activity (%) of NK92 on K562, 20 nM antibody” value is 21%; the “Killing activity (%) of NK92 on K562, 100 nM antibody” value was determined as 18.4%.

B3: humanized anti-PVRIG antibody 151H4 (Fc fusion)
heavy: EVQLVESGGGLVQPGGSLRLSCVASASGFTYRPYCMAWFRQAPGKGLEAVAGIDIFGGTTYADSVKGRFTISRDNAKNSLYLQMNSLRAEDTAVYYCAAGDSPDGRCPPLGQGLNYWGQGTMVTVSS[human IgG4 Fc with S228P F234A L235A (EU numbers) omitted]
Regarding B3, the “Experiment on activity” value in test [5] came to 3.55 nM.

B4: humanized anti-PVRIG antibody 20H5 (Fc fusion)
heavy: EVQLVESGGGLVQPGGSLRLSCAASGYTSRTDCMGWFRQAPGKEHEGVAHIDSDGIPRYVDSVKGRFTISQDHAKNSLYLQMNSLRAEDTAVYYCVVGFKFDEDYCAPNDWGQGTMVTVSS[human IgG4 Fc with S228P F234A L235A (EU numbers) omitted]
In the case of B4, in test [5], the “Experiment on activity” value came out at 0.042 nM. Also, in test [6], the “Killing activity (%) of NK92 on K562, 4 nM antibody” value amounted to 9.2%; the “Killing activity (%) of NK92 on K562, 20 nM antibody” value was determined as 9.9%; the “Killing activity (%) of NK92 on K562, 100 nM antibody” value worked out at 13.3%.

B5: anti-PVRIG antibody 30 (Fc fusion)
heavy: HVQLVESGGGSVQAGGSLRLSCEASGYSYSGDCMGWFRRAPGKERDEGVATIDNAGRIKYADSVKGRFTISHGNGKYILYLQMNSLKPEDTDMYYCAAGWTFGGNCSPADWGQGTQVTVSS[human IgG4 Fc with S228P F234A L235A (EU numbers) omitted]
As for B5, the “Experiment on activity” value in test [1] came to 0.06 nM. For the same molecule, in test [2], the “Killing activity (%) of NK92 on K562, 20 nM antibody” value is 36% and the “Killing activity (%) of NK92 on K562, 100 nM antibody” value was 39%. Further, in test [3], the “IFNγ (pg/mL) … 4 nM antibody” value was found to be 1680 pg/mL; the “IFNγ (pg/mL) … 20 nM antibody” value is 1910 pg/mL; the “IFNγ (pg/mL) … 100 nM antibody” value stood at 1580 pg/mL. Besides, in test [6], the “Killing activity (%) of NK92 on K562, 4 nM antibody” value was determined as 10.4%; the “Killing activity (%) of NK92 on K562, 20 nM antibody” value is 11.9%; the “Killing activity (%) of NK92 on K562, 100 nM antibody” value came to 13.3%.

B6: anti-PVRIG antibody 38 (Fc fusion)
heavy: QVQLVESGGGSVQAGGSLRLSCAASPSTYGPSDMAWFRQAPGKQREGVATISAAGRLTYYTDSVRGRFTISRDNAKNTMYLQMNSLKPEDTAMYYCAADFAGGSSLFADYKYWGQGTQVTVSS[human IgG4 Fc with S228P F234A L235A (EU numbers) omitted]
Regarding B6, in test [1], the “Experiment on activity” value was found to be 0.2 nM. In addition, in test [2], the “Killing activity (%) of NK92 on K562, 20 nM antibody” value turned out to be 29% and the “Killing activity (%) of NK92 on K562, 100 nM antibody” value came to 27%. Moreover, in test [3], the “IFNγ (pg/mL) … 4 nM antibody” value worked out at 1390 pg/mL; the “IFNγ (pg/mL) … 20 nM antibody” value is 2020 pg/mL; the “IFNγ (pg/mL) … 100 nM antibody” value was 2130 pg/mL.

B7: humanized anti-PVRIG antibody 30H2 (Fc fusion)
heavy: EVQLVESGGGLVQPGGSLRLSCAASGFTFSGDCMGWFRQAPGKGLDEGVATIDNAGRIKYADSVKGRFTISRDNAKNSLYLQMNSLRAEDTAVYYCAAGWTFGGQCSPADWGQGTQVTVSS[human IgG4 Fc with S228P F234A L235A (EU numbers) omitted]
With B7, in test [5], the “Experiment on activity” value amounted to 0.176 nM. Besides, in test [6], the “Killing activity (%) of NK92 on K562, 4 nM antibody” value came to 7.7%; the “Killing activity (%) of NK92 on K562, 20 nM antibody” value came to 14.5%; the “Killing activity (%) of NK92 on K562, 100 nM antibody” value was found to be 17.7%.

B8: humanized anti-PVRIG antibody 30H3 (Fc fusion)
heavy: B7 heavy with F27Y, T28S, F29Y
For the molecule B8, in test [5], the “Experiment on activity” value was determined as 0.078 nM.

B9: humanized anti-PVRIG antibody 39H4 (Fc fusion)
heavy: EVQLVESGGGLVQPGGSLRLSCAASGYTSRTDCMGWFRQAPGKGLEGVAHIDSDGIPRYVESVKGRFTISQDHAKNSLYLQMNSLRAEDTAVYYCVVGFKFGDYCAPNDWGQGTMVTVSS[human IgG4 Fc with S228P F234A L235A (EU numbers) omitted]
Regarding B9, the “Experiment on activity” value in test [5] worked out at 0.094 nM.

B10: humanized anti-PVRIG antibody 39H1 (Fc fusion)
heavy: B9 heavy with Y27F, S29F, R30S, Q71R, H73N
For the molecule B10, in test [5], the “Experiment on activity” value was determined as 0.191 nM. In test [4], the “Killing activity (%) of NK92 on K562, 4 nM antibody” value is 13.7%; the “Killing activity (%) of NK92 on K562, 20 nM antibody” value came to 17.7%; the “Killing activity (%) of NK92 on K562, 100 nM antibody” value was 21.2%.

B11: anti-PVRIG antibody 39 (Fc fusion)
heavy: QVQLVESGGGSVQAGGSLRLSCAASRYTSRTDCMGWFRQAPGKEREGVAHIDSDGIPRYVESVKGRFTISQDHAKNTLYLQMNSLKPEDSATYYCVVGFKFGDYCAPNDWGQGTQVTVSS[human IgG4 Fc with S228P F234A L235A (EU numbers) omitted]
For B11, in test [1], the “Experiment on activity” value was 0.06 nM. Moreover, in test [2], the “Killing activity (%) of NK92 on K562, 20 nM antibody” value was 32% and the “Killing activity (%) of NK92 on K562, 100 nM antibody” value amounted to 30%. In test [4], the “Killing activity (%) of NK92 on K562, 4 nM antibody” value is 21.3%; the “Killing activity (%) of NK92 on K562, 20 nM antibody” value stood at 22.7%; the “Killing activity (%) of NK92 on K562, 100 nM antibody” value came to 22.8%.

B12: humanized anti-PVRIG antibody 39H2 (Fc fusion)
heavy: B9 heavy with Y27F, Q71R, H73N
In the case of B12, in test [5], the “Experiment on activity” value came to 0.074 nM. Further, in test [4], the “Killing activity (%) of NK92 on K562, 4 nM antibody” value came out at 15.3%; the “Killing activity (%) of NK92 on K562, 20 nM antibody” value stood at 18.7%; the “Killing activity (%) of NK92 on K562, 100 nM antibody” value is 19.7%.
